From the supplement of paper PMC4604168 (melanoma cell lines)
Some of the results follow. Single values are uncertain, as repeats are few or missing.

Key:
Experiment in all cases: cell count relative to DMSO control; melanoma cells; higher = more viable cells
Conditions in all cases: library dose: standard library concentration; 72 h
G361 = test system: G361
IPC-298 = test system: IPC-298
IST-MEL1 = test system: IST-MEL1
LOXIMVI = test system: LOXIMVI
MEL-HO = test system: MEL-HO
MeWo = test system: MeWo
RPMI7951 = test system: RPMI7951
RVH-421 = test system: RVH-421
LB2518-MEL = test system: LB2518-MEL
MZ2-MEL = test system: MZ2-MEL
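Also: cells treated in 1,536-well plates, then fixed and DAPI-stained, with nuclei counted from automated high-throughput microscope images.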

Row | SMILES | cell count (G361) [%] | cell count (IPC-298) [%] | cell count (IST-MEL1) [%] | cell count (LOXIMVI) [%] | cell count (MEL-HO) [%] | cell count (MeWo) [%] | cell count (RPMI7951) [%] | cell count (RVH-421) [%] | cell count (LB2518-MEL) [%] | cell count (MZ2-MEL) [%]
1 | Clc1ccc(Nc2nnc(Cc3ccncc3)c3ccccc23)cc1 [vatalanib] + COc1cc(Nc2ncc(F)c(Nc3ccc4c(n3)NC(=O)C(C)(C)O4)n2)cc(OC)c1OC [Tamatinib] (first compound 10 µM, partner dose 2 µM) | 49.3 | 68.8 | 37 | 16.8 | 43.4 | 60.9 | 14 | 77 |  | 
2 | Nc1cccc2c1CN(C1CCC(=O)NC1=O)C2=O (stereo unspecified) [lenalidomide] + COc1cc2c(Oc3ccc4[nH]c(C)cc4c3F)ncnc2cc1OCCCN1CCCC1 [cediranib] (first compound 5 µM, partner dose 2 µM) | 78.3 | 99 | 91.5 | 63.4 | 92.4 | 76.5 | 68.4 | 74.4 |  | 
3 | Cn1c(Nc2ccc(C(F)(F)F)cc2)nc2cc(Oc3ccnc(-c4ncc(C(F)(F)F)[nH]4)c3)ccc21 + NCC(=O)Nc1ccc(-n2nc(C(F)(F)F)cc2-c2ccc3c(ccc4ccccc43)c2)cc1 [OSU03012] (first compound 0.4 µM, partner dose 5 µM) | 33.1 | 49.3 | 65.5 | 69.5 | 68 | 72.7 | 72.4 | 54.2 | 43.8 | 84.9
4 | O=C(CCCCCCC(=O)Nc1ccccc1)NO [vorinostat] + CN(C)S(=O)(=O)c1ccc2c(c1)/C(=C/c1cc3c([nH]1)CCCC3)C(=O)N2 [SU6656] (first compound 0.4 µM, partner dose 2 µM) | 60.5 | 44.5 | 63 | 63.4 | 64.6 | 69.1 | 48.2 | 72.5 | 68.1 | 78.9
5 | Nc1cccc2c1CN(C1CCC(=O)NC1=O)C2=O (stereo unspecified) [lenalidomide] + CCCCCCCCCCCC1=C(O)C(=O)C=C(O)C1=O [Embelin] (first compound 5 µM, partner dose 6 µM) | 77.3 | 75.1 | 57.5 | 187 | 78.9 | 98.3 | 79.6 | 82.6 | 100 | 96
6 | O=C(CCCCCCC(=O)Nc1ccccc1)NO [vorinostat] + Cc1ccc(NC(=O)c2cccc(N(C)C)c2)cc1NC(=O)c1ccc(O)cc1 [ZM336372] (first compound 0.4 µM, partner dose 10 µM) | 77.2 | 86.7 | 93.3 | 105 | 90.1 | 76.7 | 70 | 107 |  | 
7 | C#Cc1cccc(Nc2ncnc3cc(OCCOC)c(OCCOC)cc23)c1 [erlotinib] + CC(C)(C)c1cnc(CSc2cnc(NC(=O)C3CCNCC3)s2)o1 [SNS-032] (first compound 4 µM, partner dose 0.05 µM) | 82.7 | 92.4 | 95.6 | 76.7 | 84.7 | 78.8 | 40.1 | 82.6 | 53.1 | 96
8 | COCC[n+]1c2c(n(Cc3cnccn3)c1C)C(=O)c1ccccc1C2=O + Cc1cc([N+](=O)[O-])ccc1NS(=O)(=O)c1cc(Cl)ccc1Cl [FH535] (first compound 0.002 µM, partner dose 5 µM) | 41.3 | 41.5 | 51.1 | 57.7 | 53.8 | 52.8 | 55.5 | 77.6 | 35.2 | 15.2
9 | C#Cc1cccc(Nc2ncnc3cc(OCCOC)c(OCCOC)cc23)c1 [erlotinib] + OCCn1cc(-c2cnc3nnn(Cc4ccc5ncccc5c4)c3n2)cn1 [PF04217903] (first compound 4 µM, partner dose 5 µM) | 87.5 | 66 | 101 | 79.2 | 79 | 66.8 | 64.7 | 83.9 |  | 
10 | C#Cc1cccc(Nc2ncnc3cc(OCCOC)c(OCCOC)cc23)c1 [erlotinib] + c1cc(-c2cnn3cc(-c4ccc(OCCN5CCCCC5)cc4)cnc23)ccn1 [Dorsomorphin] (first compound 4 µM, partner dose 2 µM) | 41.8 | 48.7 | 104 | 81.8 | 74.7 | 49.4 | 60.7 | 73.1 | 42.2 | 52.5
11 | O=C(CCCCCCC(=O)Nc1ccccc1)NO [vorinostat] + O=S(=O)(c1ccccc1)N(CC(F)(F)F)c1ccc(C(O)(C(F)(F)F)C(F)(F)F)cc1 [T0901317] (first compound 0.4 µM, partner dose 7 µM) | 68.6 | 83.7 | 88.1 | 80.4 | 87.5 | 95.2 | 75.7 | 87.2 | 83.4 | 92.6
12 | OCc1c[nH]c2ccccc12 [Indole-3-carbinol] + NCC(=O)Nc1ccc(-n2nc(C(F)(F)F)cc2-c2ccc3c(ccc4ccccc43)c2)cc1 [OSU03012] (first compound 4 µM, partner dose 5 µM) | 78.5 | 69.8 | 88.6 | 80.9 | 72.5 | 88.8 | 85.7 | 101 |  | 
13 | O=C(CCCCCCC(=O)Nc1ccccc1)NO [vorinostat] + Cn1cncc1[C@@](N)(c1ccc(Cl)cc1)c1ccc2c(c1)c(-c1cccc(Cl)c1)cc(=O)n2C [tipifarnib] (first compound 0.4 µM, partner dose 0.05 µM) | 81.4 | 79.6 | 89.9 | 46.4 | 84.7 | 73.4 | 54.6 | 80.4 | 59.2 | 100
14 | COCC[n+]1c2c(n(Cc3cnccn3)c1C)C(=O)c1ccccc1C2=O + CN(C)S(=O)(=O)c1ccc2c(c1)/C(=C/c1cc3c([nH]1)CCCC3)C(=O)N2 [SU6656] (first compound 0.002 µM, partner dose 2 µM) | 61.4 | 47 | 41.4 | 74.6 | 76.9 | 57.5 | 40.2 | 68.5 |  | 
15 | O=C(CCCCCCC(=O)Nc1ccccc1)NO [vorinostat] + Cc1cc([N+](=O)[O-])ccc1NS(=O)(=O)c1cc(Cl)ccc1Cl [FH535] (first compound 0.4 µM, partner dose 5 µM) | 43.1 | 58.3 | 48.9 | 80 | 54 | 85.8 | 72.3 | 69.5 | 89.8 | 42.9
16 | Clc1ccc(Nc2nnc(Cc3ccncc3)c3ccccc23)cc1 [vatalanib] + CO[C@@H]1[C@H](N(C)C(=O)c2ccccc2)C[C@H]2O[C@]1(C)n1c3ccccc3c3c4c(c5c6ccccc6n2c5c31)C(=O)NC4 [Midostaurin] (first compound 10 µM, partner dose 0.4 µM) | 29.4 | 31.4 | 51.1 | 30.8 | 39.8 | 48.7 | 32.9 | 49.8 | 26.6 | 25.3
17 | OCc1c[nH]c2ccccc12 [Indole-3-carbinol] + COCC[n+]1c2c(n(Cc3cnccn3)c1C)C(=O)c1ccccc1C2=O [YM155] (first compound 4 µM, partner dose 0.002 µM) | 100 | 42.3 | 61 | 99.5 | 109 | 67.7 | 72.7 | 137 | 44.6 | 30.3
18 | OCc1c[nH]c2ccccc12 [Indole-3-carbinol] + O=C(O)c1ccc(-c2c[nH]c3ncc(-c4ccccc4)cc23)cc1C1CCCC1 [GSK650394] (first compound 4 µM, partner dose 0.8 µM) | 63.2 | 89.3 | 62.1 | 65.3 | 71.6 | 81.8 | 61.3 | 79.7 | 82.1 | 91
19 | OCc1c[nH]c2ccccc12 [Indole-3-carbinol] + Clc1ccc(Nc2nnc(Cc3ccncc3)c3ccccc23)cc1 [vatalanib] (first compound 4 µM, partner dose 10 µM) | 74.1 | 82.9 | 78 | 74.2 | 58.1 | 74.3 | 91 | 66.9 |  | 
20 | Cn1c(Nc2ccc(C(F)(F)F)cc2)nc2cc(Oc3ccnc(-c4ncc(C(F)(F)F)[nH]4)c3)ccc21 + Cc1ccc(NC(=O)c2cccc(N(C)C)c2)cc1NC(=O)c1ccc(O)cc1 [ZM336372] (first compound 0.4 µM, partner dose 10 µM) | 23.1 | 52.6 | 77.6 | 72.8 | 63.8 | 69.8 | 41.4 | 54.6 | 32.6 | 67.2
21 | O=C(CCCCCCC(=O)Nc1ccccc1)NO [vorinostat] + O=c1cc(-c2cccc3c2Sc2ccccc2S3)oc(N2CCOCC2)c1 [KU55933] (first compound 0.4 µM, partner dose 5 µM) | 74.9 | 85.7 | 99.3 | 94.7 | 80 | 77.8 | 71.3 | 125 | 81.9 | 83.8
22 | COCC[n+]1c2c(n(Cc3cnccn3)c1C)C(=O)c1ccccc1C2=O + O=C(O)c1ccc(-c2c[nH]c3ncc(-c4ccccc4)cc23)cc1C1CCCC1 [GSK650394] (first compound 0.002 µM, partner dose 0.8 µM) | 47.9 | 55.1 | 55.6 | 69.2 | 75.2 | 60.9 | 75.9 | 118 | 28.1 | 29.1
23 | Clc1ccc(Nc2nnc(Cc3ccncc3)c3ccccc23)cc1 [vatalanib] + COc1cc(N2CCC(N3CCN(C)CC3)CC2)ccc1Nc1ncc(Cl)c(Nc2ccccc2S(=O)(=O)C(C)C)n1 [NVP-TAE684] (first compound 10 µM, partner dose 0.4 µM) | 80 | 70.2 | 73.1 | 76.1 | 53.8 | 45.8 | 38.5 | 70.8 | 78 | 72.1
24 | O=C(CCCCCCC(=O)Nc1ccccc1)NO [vorinostat] + COc1cc2ncnc(Nc3ccc(Oc4ccccc4)cc3)c2cc1OC [SrcI1] (first compound 0.4 µM, partner dose 10 µM) | 49.5 | 74.1 | 99.1 | 64.1 | 84.2 | 57.7 | 68.7 | 110 | 109 | 59.7
25 | COCC[n+]1c2c(n(Cc3cnccn3)c1C)C(=O)c1ccccc1C2=O + C=CCn1c(=O)c2cnc(Nc3ccc(N4CCN(C)CC4)cc3)nc2n1-c1cccc(C(C)(C)O)n1 [MK1775] (first compound 0.002 µM, partner dose 0.1 µM) | 75.1 | 42 | 49.2 | 40.9 | 94.4 | 41 | 42.3 | 118 | 33.5 | 26.9
26 | Cn1c(Nc2ccc(C(F)(F)F)cc2)nc2cc(Oc3ccnc(-c4ncc(C(F)(F)F)[nH]4)c3)ccc21 + Oc1nc(-c2ccc(C(F)(F)F)cc2)nc2c1CSCC2 [XAV939] (first compound 0.4 µM, partner dose 10 µM) | 22 | 50.1 | 77.1 | 82.8 | 59.1 | 54.8 | 43.5 | 43.6 | 44 | 70.1
27 | Nc1cccc2c1CN(C1CCC(=O)NC1=O)C2=O (stereo unspecified) [lenalidomide] + CC1(C)NC(=O)N(c2ccc([N+](=O)[O-])c(C(F)(F)F)c2)C1=O [nilutamide] (first compound 5 µM, partner dose 5 µM) | 87.7 | 103 | 97.3 | 107 | 96.7 | 110 | 121 | 118 | 121 | 115
